The target in experiment [1] is Tyrosine-protein kinase receptor UFO (Homo sapiens) (UniProt P30530). The conditions noted are these: at 1 µM.
Experiment [2] addresses Tyrosine-protein kinase Blk (Homo sapiens) (UniProt P51451). The following applies: at 0.1 µM.
For experiment [3] the target is unchanged. The conditions noted are these: at 1 µM.
Experiment [4] has as its target T1, Cytoplasmic tyrosine-protein kinase BMX (Homo sapiens) (UniProt P51813).
T1 sequence (whole entry): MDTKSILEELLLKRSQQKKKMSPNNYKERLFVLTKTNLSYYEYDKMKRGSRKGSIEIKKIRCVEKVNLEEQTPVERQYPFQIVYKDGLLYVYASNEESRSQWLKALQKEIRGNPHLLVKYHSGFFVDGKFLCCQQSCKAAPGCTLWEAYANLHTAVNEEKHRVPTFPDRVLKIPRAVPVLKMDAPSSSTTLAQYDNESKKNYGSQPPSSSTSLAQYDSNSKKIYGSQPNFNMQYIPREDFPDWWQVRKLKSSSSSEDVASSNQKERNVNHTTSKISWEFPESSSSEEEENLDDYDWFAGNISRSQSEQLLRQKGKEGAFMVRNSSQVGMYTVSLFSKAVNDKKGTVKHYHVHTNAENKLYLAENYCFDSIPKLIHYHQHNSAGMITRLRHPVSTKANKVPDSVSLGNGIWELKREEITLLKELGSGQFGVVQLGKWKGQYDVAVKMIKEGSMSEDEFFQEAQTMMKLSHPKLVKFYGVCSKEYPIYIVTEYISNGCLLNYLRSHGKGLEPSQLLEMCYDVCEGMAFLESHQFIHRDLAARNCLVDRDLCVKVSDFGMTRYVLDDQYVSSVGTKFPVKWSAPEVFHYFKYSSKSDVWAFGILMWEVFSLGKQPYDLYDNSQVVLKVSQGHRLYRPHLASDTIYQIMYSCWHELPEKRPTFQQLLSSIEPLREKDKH
The conditions noted are these: at 0.1 µM.

In experiment [5] the target is T1, Cytoplasmic tyrosine-protein kinase BMX (Homo sapiens). The following applies: at 1 µM.
The target in experiment [6] is Protein-tyrosine kinase 6 (Homo sapiens) (UniProt Q13882). The following applies: at 0.1 µM.
Experiment [7] shares this target. The conditions noted are these: at 1 µM.
The target of experiment [8] is Tyrosine-protein kinase BTK (Homo sapiens) (UniProt Q06187). The following applies: at 0.1 µM.
Experiment [9] shares this target. The following applies: at 1 µM.
The target of experiment [10] is Tyrosine-protein kinase CSK (Homo sapiens) (UniProt P41240). The conditions noted are these: at 0.1 µM.
For experiment [11] the target is unchanged. The following applies: at 1 µM.
Experiment [12] has as its target T2, Discoidin domain-containing receptor 2 (Homo sapiens) (UniProt Q16832).
T2 sequence (whole entry): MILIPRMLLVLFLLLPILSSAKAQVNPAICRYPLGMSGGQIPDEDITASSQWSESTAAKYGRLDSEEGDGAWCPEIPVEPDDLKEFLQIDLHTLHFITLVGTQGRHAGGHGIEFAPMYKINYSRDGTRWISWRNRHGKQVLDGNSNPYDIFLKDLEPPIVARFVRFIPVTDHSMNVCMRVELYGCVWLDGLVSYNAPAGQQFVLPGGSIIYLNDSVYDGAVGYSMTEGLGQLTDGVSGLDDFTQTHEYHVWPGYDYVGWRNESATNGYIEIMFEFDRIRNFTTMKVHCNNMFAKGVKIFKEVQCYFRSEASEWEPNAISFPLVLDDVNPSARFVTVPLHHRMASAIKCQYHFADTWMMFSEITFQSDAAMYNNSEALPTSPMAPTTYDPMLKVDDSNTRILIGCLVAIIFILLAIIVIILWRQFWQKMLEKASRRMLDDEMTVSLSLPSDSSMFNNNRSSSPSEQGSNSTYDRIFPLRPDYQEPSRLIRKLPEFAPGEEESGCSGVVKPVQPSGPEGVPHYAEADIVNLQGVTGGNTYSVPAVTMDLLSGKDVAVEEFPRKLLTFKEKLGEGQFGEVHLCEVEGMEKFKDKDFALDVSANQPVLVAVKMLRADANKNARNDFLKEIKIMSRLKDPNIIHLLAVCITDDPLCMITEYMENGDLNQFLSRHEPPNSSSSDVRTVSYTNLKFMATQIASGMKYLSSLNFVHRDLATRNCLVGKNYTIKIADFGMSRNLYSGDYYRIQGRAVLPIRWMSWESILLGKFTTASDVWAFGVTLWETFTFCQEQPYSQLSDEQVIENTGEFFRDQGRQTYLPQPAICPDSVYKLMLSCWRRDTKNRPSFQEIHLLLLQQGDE
The conditions noted are these: at 0.1 µM.

Experiment [13] concerns the target T2, Discoidin domain-containing receptor 2 (Homo sapiens). The conditions noted are these: at 1 µM.
The target in experiment [14] is Epidermal growth factor receptor (Homo sapiens) (UniProt P00533). The conditions noted are these: at 0.1 µM.
The subject of experiment [15] is Epidermal growth factor receptor (Homo sapiens), P00533 [L858R]. The conditions noted are these: at 0.1 µM.
For experiment [16] the test system is unchanged. The conditions noted are these: at 1 µM.
In experiment [17] the test system is Epidermal growth factor receptor (Homo sapiens), P00533 [L861Q]. The conditions noted are these: at 0.1 µM.
The test system is the same in experiment [18]. The conditions noted are these: at 1 µM.
Experiment [19] deals with Epidermal growth factor receptor (Homo sapiens), P00533 [T790M]. The following applies: at 0.1 µM.
In experiment [20] the target is Epidermal growth factor receptor (Homo sapiens) (UniProt P00533). The following applies: at 1 µM.

For some assays here: This list holds what a sample rich in strong results left over. The entries are a selection whose mix differs from that of the whole data set.

Consider `Cc1cccc(Oc2nccc(-c3c(-c4ccc(F)cc4)ncn3C3CCNCC3)n2)c1C`, for which the inhibition (in general, the change of the read-out against control, counted positive when it falls) in experiment [1] is -4.55%; in experiment [2], 2.01%; in [3], 3.56%; in experiment [4] it was 3.46%; in [5], 3.1%; in experiment [6], 0.87%. Moreover, the inhibition in [7] was 4.02%; in [8], -0.86%; in experiment [9], -0.39%; in experiment [10], -0.25%; in [11], 2.22%; in experiment [12], 2.03%. The inhibition in experiment [13] turned out to be 2.55%; in [14] it was 0.75%; in [15] it was 5.39%; in [16], 35.3%; in experiment [17] it was 1.98%; in [18], 9.12%. Also, the inhibition in [19] was 1.66%.

Take `COc1ccccc1Oc1nccc(-c2c(-c3ccc(F)cc3)ncn2C2CCNCC2)n1`: the inhibition in experiment [1] is -4.58%; in experiment [2], 3.3%; in experiment [3], 6.98%; in experiment [4], 3.59%; in [5], 5.8%; in experiment [6], 2.68%. Besides, the inhibition was -0.07% in experiment [8]; 0.6% in experiment [9]; 3.89% in [10]; 3.61% in experiment [11]; 0.64% in [12]; 1.03% in experiment [13]. Further, the inhibition in experiment [14] came out at 7.14%; in experiment [20], 9.34%; in [15], 3.76%; in experiment [16] it was 4.88%; in [17], 3.48%; in [18] it was 4.22%. Also, the inhibition in experiment [19] is 1.71%.

`Fc1ccc(-c2ncn(C3CCNCC3)c2-c2ccnc(Oc3cccc(F)c3)n2)cc1`: the inhibition in [1] is -5.13%; in experiment [2] it was 5.81%; in experiment [3], 4.86%; in [4], 3.89%; in experiment [5] it was 6.47%; in experiment [6], 4.75%. In addition, the inhibition in [7] was 4.97%; in experiment [8] it was -0.06%; in experiment [9] it was 3.39%; in [10], 1.11%; in experiment [12] it was 0.54%; in experiment [13] it was 3.86%. Also, the inhibition in [14] came out at 2.42%; in experiment [20] it was 7.82%; in [15], 4.39%; in experiment [16], 14.7%; in [17], 4.22%; in [18] it was 8.74%. Besides, the inhibition in experiment [19] is 2.03%.

In the case of `O=C1NC(=O)C(c2ccccc2)=C1Nc1ccccc1`, the inhibition is -6.3% in experiment [1]; 4.12% in [2]; 3.55% in experiment [3]; -0.65% in experiment [4]; 4.27% in experiment [5]; 5.31% in experiment [6]. Further, the inhibition was 7.17% in experiment [7]; -1.36% in experiment [8]; 1.02% in [9]; 6.16% in experiment [10]; 3.51% in [11]; 1.88% in [12]. The inhibition in [13] worked out at 3.14%; in [14], 8.49%; in experiment [20] it was 10.7%; in experiment [15], 6.9%; in [16] it was 5.64%; in experiment [17], 3.64%. Moreover, the inhibition in [18] was determined as 5.01%; in [19], 2.78%.

As to `O=C(O)c1ccc(Oc2nccc(-c3c(-c4ccc(F)cc4)ncn3C3CCNCC3)n2)cc1`, the inhibition was -6.84% in experiment [1]; 1.4% in experiment [2]; 1.74% in experiment [3]; 3.58% in experiment [4]; 6.96% in experiment [5]; 1.43% in experiment [6]. Also, the inhibition in [7] was 1.47%; in [8] it was -1.81%; in [9] it was -0.67%; in experiment [10] it was 0.4%; in [11], 3.23%; in experiment [12], 1.01%. Further, the inhibition worked out at 0.98% in experiment [13]; 1.34% in [14]; 2.03% in experiment [20]; 4.05% in [15]; 4.01% in experiment [16]; 2.48% in experiment [17]. Moreover, the results for the inhibition in experiment [18] and in experiment [19] were 3.68% and 2.06%, respectively.

`NC(=O)CCc1ccccc1Oc1nccc(-c2c(-c3ccc(F)cc3)ncn2C2CCNCC2)n1`: the inhibition is 1.56% in experiment [1]; -2.5% in experiment [2]; -0.54% in experiment [3]; -1.3% in [4]; 0.07% in [5]; 0.32% in experiment [6]. Also, the inhibition in experiment [7] was -1.18%; in experiment [8], -0.99%; in experiment [9], -0.94%; in experiment [10] it was -0.65%; in experiment [11] it was -3.23%; in [12] it was 0.1%. Also, the inhibition in experiment [13] is 0.52%; in experiment [14], 3.5%; in experiment [20] it was 4.57%; in experiment [15] it was -0.86%; in experiment [16], 6.23%; in [17] it was -0.75%. The figures for the inhibition in [18] and in [19] were -1.05% and 0.37%, respectively.

Take `CC(C)(C)c1ccc(Oc2nccc(-c3c(-c4ccc(F)cc4)ncn3C3CCNCC3)n2)cc1`: the inhibition in experiment [1] is -1.65%; in experiment [2], 1.04%; in [3], 3.11%; in experiment [4] it was 3.34%; in [5], 3.63%; in experiment [6], 4.36%. In addition, the inhibition is 4.11% in experiment [7]; -0.77% in [8]; -0.84% in [9]; 2.73% in experiment [10]; 2.93% in experiment [11]; 6.73% in experiment [12]. In addition, the inhibition came to 45.8% in experiment [13]; 7.7% in experiment [14]; 9.47% in [20]; 1.78% in experiment [15]; 11.4% in [16]; 4.25% in [17]. For the same compound, the inhibition in [18] amounted to 7.41%; in [19], 1.07%.

Values taken from ChEMBL document CHEMBL1961873, “Compounds: GSK PKIS; Assays: Nanosyn kinase panel” (2012).
